Results are given in words; binding and its absence hold for the method and conditions named. In cells and extracts the contact can be indirect. Some entries that bind do so weakly or less than the wild type. For some assays here: Where a sequence is shown, tags or fusion partners need not be part of it.

The chains behind the UniProt entries cited, without tags or fusion partners. Residues count along the entry.
UniProt P24593, residues 21-272: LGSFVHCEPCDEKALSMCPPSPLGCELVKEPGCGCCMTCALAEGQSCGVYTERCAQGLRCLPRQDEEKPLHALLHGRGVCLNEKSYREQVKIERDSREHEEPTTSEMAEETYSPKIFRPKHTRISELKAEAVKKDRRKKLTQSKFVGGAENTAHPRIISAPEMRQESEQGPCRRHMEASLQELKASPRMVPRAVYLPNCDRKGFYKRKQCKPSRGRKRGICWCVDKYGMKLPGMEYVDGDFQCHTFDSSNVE
UniProt Q86U44: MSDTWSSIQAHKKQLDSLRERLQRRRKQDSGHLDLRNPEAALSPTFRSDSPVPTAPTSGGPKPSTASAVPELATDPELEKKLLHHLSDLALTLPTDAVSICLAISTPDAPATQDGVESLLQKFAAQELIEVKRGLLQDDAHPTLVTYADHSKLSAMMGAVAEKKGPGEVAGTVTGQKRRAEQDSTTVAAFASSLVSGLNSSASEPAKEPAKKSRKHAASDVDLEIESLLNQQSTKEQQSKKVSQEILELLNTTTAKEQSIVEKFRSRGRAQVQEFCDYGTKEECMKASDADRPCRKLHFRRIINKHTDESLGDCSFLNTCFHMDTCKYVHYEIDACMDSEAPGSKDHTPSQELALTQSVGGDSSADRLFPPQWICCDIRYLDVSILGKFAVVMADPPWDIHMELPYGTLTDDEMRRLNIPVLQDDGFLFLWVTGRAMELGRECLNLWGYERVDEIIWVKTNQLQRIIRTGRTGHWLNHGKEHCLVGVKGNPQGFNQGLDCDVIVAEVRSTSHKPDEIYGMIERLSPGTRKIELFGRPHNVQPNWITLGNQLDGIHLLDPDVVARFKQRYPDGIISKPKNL

In test [1] the target is T1, wild-type Flag-METTL14 (full-length METTL14, 1-456 amino acids) (UniProt Q9HCE5).
T1 sequence: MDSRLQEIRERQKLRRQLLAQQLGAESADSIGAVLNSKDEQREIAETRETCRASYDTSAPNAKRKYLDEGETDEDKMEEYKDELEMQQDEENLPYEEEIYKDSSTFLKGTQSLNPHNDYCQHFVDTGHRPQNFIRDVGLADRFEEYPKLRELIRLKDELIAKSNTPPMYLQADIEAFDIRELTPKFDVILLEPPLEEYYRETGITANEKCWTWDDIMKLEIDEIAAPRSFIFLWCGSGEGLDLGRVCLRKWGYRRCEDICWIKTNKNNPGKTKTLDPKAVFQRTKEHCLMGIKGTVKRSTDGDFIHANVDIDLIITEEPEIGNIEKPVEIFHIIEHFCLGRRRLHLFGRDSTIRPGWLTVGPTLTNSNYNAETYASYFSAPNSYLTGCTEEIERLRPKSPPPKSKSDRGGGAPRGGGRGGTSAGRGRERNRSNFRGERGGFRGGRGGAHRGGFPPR
Put plainly: co-IP; 293 T cells co-transfected with HA-IGFBP5 and Flag-METTL14 constructs; lysate treated with RNase A and T1; anti-Flag M2 magnetic beads, 4 h at 4 °C; western blot. (Immunoblotting shows a protein as a band on a membrane.)

The target in test [2] is T2, Flag-ΔMT-A70 (METTL14 with deletion of 186-363, MT-A70 domain) (UniProt Q9HCE5).
T2 sequence: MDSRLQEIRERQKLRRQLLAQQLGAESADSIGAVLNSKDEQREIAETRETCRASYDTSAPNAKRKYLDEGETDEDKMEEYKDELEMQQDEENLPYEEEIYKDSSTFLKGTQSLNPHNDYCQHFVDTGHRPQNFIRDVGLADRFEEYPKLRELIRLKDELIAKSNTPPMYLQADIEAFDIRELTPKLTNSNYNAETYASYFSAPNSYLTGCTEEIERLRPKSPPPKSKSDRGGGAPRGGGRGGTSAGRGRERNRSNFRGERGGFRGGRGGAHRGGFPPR
The description is as above.

Test [3] deals with IGFBP5 (human (endogenous in HUVECs)) (UniProt P24593). Put plainly: co-IP; HUVECs; co-immunoprecipitation of IGFBP5 with METTL14, METTL3 and WTAP (Fig. 2a); precipitating antibody not stated.
Test [4] deals with T3, methyltransferase-like 14 (METTL14) (human (endogenous in HUVECs)) (UniProt Q9HCE5).
T3 sequence: T1 sequence
The test is described as follows: co-IP; HUVECs; reverse (reciprocal) immunoprecipitation (Fig. 2b); precipitating antibody not stated.

As for “HA-tagged IGFBP5 (from UniProt P24593 21-272)”, the values for the binding result in test [1] and in test [2] were “binds” and “no binding”, respectively.

Regarding “methyltransferase-like 3 (METTL3) (from UniProt Q86U44 1-580)”, in test [3], the binding entry is listed as “no binding”.

For the molecule IGFBP5 (from UniProt P24593 21-272), the binding entry in test [4] is given as “binds”.

B1: methyltransferase-like 14 (METTL14) (protein, UniProt Q9HCE5 1-456)
chain: T1 sequence
B1: the binding entry in test [3] was “binds”.

(Values after article PMC13538678.)
